The source of these data is article PMC12136788.

Some of the results follow.

To fix the notation:
T1: UNK ZnF1-3 (human, UniProt Q9C0B0 31-174)
T1 sequence: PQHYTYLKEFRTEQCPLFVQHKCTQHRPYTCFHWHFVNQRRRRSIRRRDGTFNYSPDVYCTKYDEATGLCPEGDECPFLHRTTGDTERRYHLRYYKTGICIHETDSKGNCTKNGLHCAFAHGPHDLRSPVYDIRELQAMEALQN

B1: chr4:39918803:39918804:-_ENSG00000121892_ENST00000303538|hu_hu|FALSE|FALSE (ssRNA)
RNA: GGGAGUUCUACAGUCCGACGAUCUACAUGUUCUGACAAAUCACUUACUGAUGAUCUUCCCAGCACCAGGACUUGAUUGAAAAAAUUAGCAAUGCAUGCCUCAAUAGUCUGGACUGUUCUUUUCAAUAGCACUUUUGCAAGGUCCAACAGAGGAUUGAGCAUCA
B2: chr4:95690885:95690886:+_ENSMUSG00000028572_ENSMUST00000156910|mus_mus|mus_mus_mus_hu_False|1_1 (ssRNA)
RNA: GGGAGUUCUACAGUCCGACGAUCUUUAGAAAAUGUUAAAUACCAUGCUAAAAUAUUUUCAAAGGCUUAUUUUAUUUUACCAGAAGUCACAGGCAAGCAGACACUACAAGAAUAUAUGAAAAUGAAACUCAACAAUAAAAUGUACAACAGAGGAUUGAGCAUCA
B3: chr17:65336665:65336666:-_ENSG00000197170_ENST00000356126|hu_hu|FALSE|FALSE (ssRNA)
RNA: GGGAGUUCUACAGUCCGACGAUCUAUAUACUGCUUUUAUUAUUGGAAUAUGUUUGUUAGUUGAAUGAAAACAAACAGUAGCUAAAAAGGUUUCAAAUGAUAGAAAAACAUAUCUGGGUAAGUUAUGACACAACUUUUUGUGUACAACAGAGGAUUGAGCAUCA
B4: 98545922_98546267_3831_CDS_ENSG00000196367_ENST00000456197|human|control|control (ssRNA)
RNA: GGGAGUUCUACAGUCCGACGAUCCCAUCAUGAACAGCUCCACUGUCUGCGAGGGAUGUCGAGUCAGGAACUUGAUCAGGGGCUCUCGGAAUGGACUCCCCGCCUCGAUCAGCAUCGCCCGCUCCGUUUUCAUGACAACCUCUACAACAGAGGAUUGAGCAUCA
B5: chrX:140365796:140365797:-_ENSMUSG00000031285_ENSMUST00000033642|mus_mus|mus_mus_mus_hu_False|38_108 (ssRNA)
RNA: GGGAGUUCUACAGUCCGACGAUCCUUCUCAUUACUUAGUGCCUGCAAGGUUCUGGUUCGGUAGAAGCUACAGUGGGCGCUGUGAGUGGGGCUAGGCAGUCCAUUCAUCCGGGAGCCUCGCAUGUUCCUGGAUGUCUUAUCUCUCAACAGAGGAUUGAGCAUCA
B6: chr7:34927866:34927867:-_ENSMUSG00000052997_ENSMUST00000102746|mus_mus|motif|central (ssRNA)
RNA: GGGAGUUCUACAGUCCGACGAUCGCUUUUGGCAGCAUCUUCAGCUUGUUUUGGCCCCACUUUUUCAGGGCUGUCACCAACGGCUUCAAAUUCAACAUCCUUUCCAAGAUCUUCACUAUGAAGAAUGUUGAUCAGCAAAGUAUACAACAGAGGAUUGAGCAUCA
B7: chr1:120316390:120316391:+_ENSMUSG00000064302_ENSMUST00000049404|mus_mus|motif|central (ssRNA)
RNA: GGGAGUUCUACAGUCCGACGAUCCAACAGGGUCUGGUCGUGCUCAAGGUCAGCAGACUUCUGUCUGUCUGAGAAAUAGUCGGUGAGUUCCUGGCCAACCUGCAGCCGCUUUCCCACAUCCUUCUGCAGCACCUGGGCCAGACACAACAGAGGAUUGAGCAUCA
B8: 118844846_118850702_1537_CDS_ENSG00000133835_ENST00000256216|human|control|control (ssRNA)
RNA: GGGAGUUCUACAGUCCGACGAUCAGGUCUAUUAGGUAUGGCUACAGCUACCUUGACUUUGUCUGAUGUCCGUUUUCCACCAAAGCCUCCAGAGCCAACAAGAAAGAGAGAGAACUGAUUGUGGCAUAUAAGUUCCUUCUCAGACAACAGAGGAUUGAGCAUCA
B9: chr1:137302511:137302512:-_ENSMUSG00000041879_ENSMUST00000161189|perfect_dup|FALSE|FALSE (ssRNA)
RNA: GGGAGUUCUACAGUCCGACGAUCCUUAACAGUGCUUUUGAAUUUGCUAUUUUCUAGUAGAGCAUGGACAAAUUCAAAAAUGCUAAAGACGAGAUUUUCAAAGCCCAGGACUUCACCAUCAGAAUCCACAGGAUCUUCUACUUCCAACAGAGGAUUGAGCAUCA
B10: chr11:102546300:102546301:-_ENSMUSG00000020925_ENSMUST00000092569|mus_hu|FALSE|FALSE (ssRNA)
RNA: GGGAGUUCUACAGUCCGACGAUCUGGGCCAAAUUCGGCCCGUGGGCAGUAGUUUGCCAACCCCUGGUAUAAAAUAUCUACUUUGUCUUGUCAGAGAAAUUGCUGUCCUUAGGCUUCUAGACAAUCUGCUGCCUGAAGUCAAGUCAACAGAGGAUUGAGCAUCA
B11: chr19:53703180:53703181:+_ENSMUSG00000024974_ENSMUST00000025930|mus_mus|motif|central (ssRNA)
RNA: GGGAGUUCUACAGUCCGACGAUCAUUUUGAACAUGCUGGUUUAUACCUUUUCGCCGAAAAUGUUCUAGCACUUUGUUAAUGCGGUCGGUUCCAUUUAAAAUGGCCUUUCCUGUUGCCGCUCUAAGAAGUUGCUGCUUCUUCUCCAACAGAGGAUUGAGCAUCA
B12: chr16:50257146:50257147:+_ENSG00000121274_ENST00000436909|hu_hu|motif|central (ssRNA)
RNA: GGGAGUUCUACAGUCCGACGAUCUAUCCGGAUGCCAGUCUUUAAAUAAUUGAAGUGUCGUCCAUAUAAUUCAAAAAAUUCGGUUAAGAGAACACCAUAGUUUGUAUUGGGGAUGCAAGCAUCUUCCCUGGGAUGUAACUGAAGCAACAGAGGAUUGAGCAUCA
B13: chr12:16048344:16048345:+_ENSG00000023734_ENST00000419869|hu_hu|hu_hu_hu_mus_True|68_68 (ssRNA)
RNA: GGGAGUUCUACAGUCCGACGAUCAGAUCGUCCAUAAGUAAUAACCAAAAUCUCUCCUUCAGGAAUAUAUUCCAUACUGCUAACAGACAUAUUAAAAUUCAGAGAUUUCACUUCUGUCAUUGUGGCAUGAUCCCAGAGCCGAACCAACAGAGGAUUGAGCAUCA
B14: 8778146_8778266_78_3pUTR_ENSMUSG00000020592_ENSMUST00000020911|mouse|control|control (ssRNA)
RNA: GGGAGUUCUACAGUCCGACGAUCACUGCCAGGUCCCUUCCUCUGCGUUAGGCUCUGUCUCCUCUGGCCCGCACCUCUCCCGCGGAGCUCCGCCUUAUAAUAAACCCAAAGGCUCUGCAGUUGCAAAACUAGCCGCCCACCCCCCAACAGAGGAUUGAGCAUCA
B15: 97395070_97395776_2053_CDS_ENSMUSG00000038453_ENSMUST00000107596|mouse|control|control (ssRNA)
RNA: GGGAGUUCUACAGUCCGACGAUCGGUCUCCGGCUCUGAGCCUCGCAGUAGGGCACUCUGUACUAGGCCAGUGAGGCUGGCAAUCUGCUUCUCCAUAGCCUCCAUGCGUUCCCUGGUCUCUGUGUCUUUGGCUGGCACCGGCGGCAACAGAGGAUUGAGCAUCA
B16: chr20:33096620:33096621:+_ENSG00000078747_ENST00000374864|hu_mus|FALSE|FALSE (ssRNA)
RNA: GGGAGUUCUACAGUCCGACGAUCCAACUUGAAUAGUUUAGCAAAAAUGAAAUGUAACUAAGGUGUUGGAUUACUUCAACACCAUAAAGCUUCAAUUUAUGUGUAGGAUUUAAAAAAAUCAAGAAUGAUCUUAGAUGAAUUCAUCAACAGAGGAUUGAGCAUCA
B17: chr14:76907486:76907487:+_ENSMUSG00000022010_ENSMUST00000022587|mus_hu|motif|central (ssRNA)
RNA: GGGAGUUCUACAGUCCGACGAUCAGUGACACCUUACAAUUGUGUAGAGAACAUGCACAGAAACAUAUGCAUAUAACGGCGGUACAGGUGAUAUGCAGAAACCCCUACUGGGAAAUCCAUUUCAUUAGUUAGAACUGAGCAUUUCAACAGAGGAUUGAGCAUCA
B18: chr5:125368827:125368828:+_ENSMUSG00000079215_ENSMUST00000111417|mus_mus|motif|central (ssRNA)
RNA: GGGAGUUCUACAGUCCGACGAUCUAGCUUCAAAAGUGUUAGUUGUAUUCCCCAGCAACCGCAUGAUAAAAUAAUUCAACGGUGUAGAAAUAUAGAACUCUAGGACUAGCUGGAAACUGGGCAAUCAUUUAGUCCAGUGUCCUCCAACAGAGGAUUGAGCAUCA
B19: chr15:39702511:39702512:-_ENSMUSG00000022305_ENSMUST00000022916|mus_hu|FALSE|FALSE (ssRNA)
RNA: GGGAGUUCUACAGUCCGACGAUCCUUAAUUUUCUUUUGAGAGUGUAGCAUGAUCCCCCCCAGGAAUAAAAUAUAUUGAAAAAAUCACUCUUACAACAAUGUAUUUUUUAAAUACAACAAAUAAAUAUGAAACCAGCAAAGCAACAACAGAGGAUUGAGCAUCA
B20: 135086505_135086625_324_3pUTR_ENSMUSG00000028165_ENSMUST00000029815|mouse|control|control (ssRNA)
RNA: GGGAGUUCUACAGUCCGACGAUCCUGUCCUCGGCUCGGCUGCGGGGGUGGGCGUCCGCUUUCGACCCUUGACGUCUGCGGAAGCGGGUGGCCGGGUUUUGAAAGAAACCCAAAGUUACCCACUGAUUGUUUUUUCCUCCGCAACAACAGAGGAUUGAGCAUCA
B21: 21608975_21614024_810_CDS_ENSG00000121350_ENST00000240651|human|control|control (ssRNA)
RNA: GGGAGUUCUACAGUCCGACGAUCAAACUCAUCCUGAAGGUAGAUUUUCUUUACUUCACACAUAGUUUCAAGGUGAAUCUUAUGAGAAAACUCUUUUGUUCCUUUAAGAUUCAAGCCUUCAUGCCAAUCUGGUCCCAAUGCACUCAACAGAGGAUUGAGCAUCA
B22: chr6:99998177:99998178:-_ENSG00000112237_ENST00000369220|hu_mus|motif|central (ssRNA)
RNA: GGGAGUUCUACAGUCCGACGAUCAAGGGGAAGCAGCACGUCUUCCUGGCCCAUGUCCUGCACAUACUGGAGCAAAGGUCGGUAAGGAUGAUACACUAUCAAGCAACAGUCCAUUAAUUCUAAGAGGUAAAAUUCACAUUCUAGCAACAGAGGAUUGAGCAUCA

For the assay, the target named is T1, UNK ZnF1-3. In words: nsRBNS (natural sequence RNA bind-n-seq); RBNS binding buffer (assumed for nsRBNS): 25 mM Tris pH 7.5, 150 mM KCl, 3 mM MgCl2, 0.01% Triton X-100, 500 ug/ml BSA, 20 U/ml SUPERase-In, 4 C; UNK is unkempt and MSI1 is Musashi-1; names of the RNAs are library labels; protein concentration not given here; high values mean tight binding.
In turn, B1 returned a binding signal of 0.823 enrichment R.
Under B2 stands 1.82 enrichment R; under B3, 1.1 enrichment R.
Molecule B4 yielded a binding signal of 0.746 enrichment R.
Under B5 stands 0.564 enrichment R; under B6, 0.712 enrichment R; under B7, 1.13 enrichment R.
The figure for B8 is 1.07 enrichment R; for B9 it is 1.01 enrichment R.
B10 came in with a binding signal of 0.667 enrichment R.
As to B11, the binding signal was 0.256 enrichment R.
On to B12, for which the binding signal came out at 1.62 enrichment R.
Molecule B13 came in with a binding signal of 1.25 enrichment R.
For the molecule B14, the binding signal turned out to be 1.59 enrichment R.
Regarding B15, the binding signal was 0.533 enrichment R.
B16 had a binding signal of 0.59 enrichment R.
Molecule B17 had a binding signal of 1.69 enrichment R.
Under B18 stands 1.34 enrichment R; under B19, 3.05 enrichment R; under B20, 0.51 enrichment R.
Under B21 stands 0.678 enrichment R; under B22, 0.703 enrichment R.
